No constants are given. Whether binding was seen depends on the method and setting. For part of these data: In cells and extracts the contact can be indirect. Some entries that bind do so weakly or less than the wild type. For part of these data: Tags and fused reporters may be left off the sequences shown.
Assays:
[1] = target: T1, Trs85[501-698] (Saccharomyces cerevisiae) (UniProt P46944); test: SEC; recombinant complex co-expressed in E. coli, after Ni-NTA and MonoQ; Superdex200 10/300 in 10 mM Tris pH 8, 150 mM NaCl, 1 mM DTT; Coomassie gel of the fractions; both purified
T1 sequence: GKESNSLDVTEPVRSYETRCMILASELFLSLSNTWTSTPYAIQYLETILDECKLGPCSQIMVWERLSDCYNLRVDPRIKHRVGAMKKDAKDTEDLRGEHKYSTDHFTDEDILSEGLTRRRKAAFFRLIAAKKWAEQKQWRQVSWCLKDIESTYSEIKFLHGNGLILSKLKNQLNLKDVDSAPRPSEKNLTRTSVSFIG

[2] = target: T2, Trs85 (Saccharomyces cerevisiae) (UniProt P46944); test: as above
T2 sequence: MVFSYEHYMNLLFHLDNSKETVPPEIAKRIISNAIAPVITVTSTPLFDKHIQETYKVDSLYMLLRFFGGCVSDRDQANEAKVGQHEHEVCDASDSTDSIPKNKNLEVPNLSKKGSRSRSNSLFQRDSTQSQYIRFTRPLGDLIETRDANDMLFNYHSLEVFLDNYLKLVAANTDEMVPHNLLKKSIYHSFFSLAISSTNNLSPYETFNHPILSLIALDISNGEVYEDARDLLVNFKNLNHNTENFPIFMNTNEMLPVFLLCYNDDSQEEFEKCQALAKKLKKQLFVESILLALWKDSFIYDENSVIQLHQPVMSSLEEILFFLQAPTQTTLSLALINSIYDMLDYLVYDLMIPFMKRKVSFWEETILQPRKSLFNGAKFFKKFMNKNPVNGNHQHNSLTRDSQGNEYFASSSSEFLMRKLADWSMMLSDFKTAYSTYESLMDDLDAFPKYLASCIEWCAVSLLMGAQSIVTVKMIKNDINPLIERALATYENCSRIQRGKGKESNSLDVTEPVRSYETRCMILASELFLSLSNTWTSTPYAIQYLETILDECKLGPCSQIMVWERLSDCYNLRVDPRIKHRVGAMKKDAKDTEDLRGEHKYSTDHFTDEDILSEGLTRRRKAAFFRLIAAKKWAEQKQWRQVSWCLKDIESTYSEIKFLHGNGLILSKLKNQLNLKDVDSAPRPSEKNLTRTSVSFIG

[3] = target: T3, Trs85[Δ575-603] (recombinant) (Saccharomyces cerevisiae) (UniProt P46944); test: as above
T3 sequence: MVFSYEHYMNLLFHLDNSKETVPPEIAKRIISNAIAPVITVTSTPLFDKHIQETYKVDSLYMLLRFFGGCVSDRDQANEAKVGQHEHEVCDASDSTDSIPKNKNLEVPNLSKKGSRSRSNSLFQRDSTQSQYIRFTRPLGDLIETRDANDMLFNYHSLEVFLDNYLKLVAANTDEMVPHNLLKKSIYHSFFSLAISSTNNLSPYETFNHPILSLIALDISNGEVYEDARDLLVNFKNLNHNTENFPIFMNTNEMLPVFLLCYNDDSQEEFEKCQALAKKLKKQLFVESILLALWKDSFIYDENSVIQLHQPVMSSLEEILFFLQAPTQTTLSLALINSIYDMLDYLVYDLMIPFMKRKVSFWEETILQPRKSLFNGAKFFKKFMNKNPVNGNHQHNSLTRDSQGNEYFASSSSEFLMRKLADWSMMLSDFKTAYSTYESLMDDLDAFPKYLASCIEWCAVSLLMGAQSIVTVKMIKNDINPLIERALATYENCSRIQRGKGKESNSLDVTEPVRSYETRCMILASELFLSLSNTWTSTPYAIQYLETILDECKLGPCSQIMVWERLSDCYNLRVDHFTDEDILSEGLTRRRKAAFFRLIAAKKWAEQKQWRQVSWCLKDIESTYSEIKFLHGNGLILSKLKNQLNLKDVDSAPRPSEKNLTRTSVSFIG

[4] = target: T3, Trs85[Δ575-603] (recombinant) (Saccharomyces cerevisiae); test: pull-down; nickel-ion affinity purification (Ni-NTA) through the tagged Trs85 from lysate of E. coli co-expressing the core subunits; 40 mM Tris pH 8, 300 mM NaCl, 10% glycerol
[5] = target: T2, Trs85 (Saccharomyces cerevisiae); test: cryo-EM structure; TRAPPIII (after anion exchange) mixed 1:3 with Ypt1-7xHis, overnight at 4°C with calf intestinal alkaline phosphatase, complex isolated by SEC in 10 mM Tris pH 7.5, 350 mM NaCl, 1 mM DTT; 3.7 Å reconstruction; both purified
[6] = target: Trs31 (Saccharomyces cerevisiae) (UniProt Q03337); test: cross-linking; purified TRAPPIII-Rab1/Ypt1 complex, 625 µM DSSO, 1 h on ice, 10 mM HEPES pH 8, 150 mM NaCl, 1 mM DTT; LC-MS3, MaXLinker; both purified
[7] = target: T4, Trs20 (Saccharomyces cerevisiae) (UniProt P38334); test: as above
T4 sequence: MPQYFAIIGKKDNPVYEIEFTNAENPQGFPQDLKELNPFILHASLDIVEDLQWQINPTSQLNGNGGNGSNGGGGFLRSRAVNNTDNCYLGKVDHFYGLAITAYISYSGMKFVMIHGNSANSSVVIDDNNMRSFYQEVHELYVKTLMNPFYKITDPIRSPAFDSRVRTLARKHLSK

[8] = target: Trs31 (Saccharomyces cerevisiae) (UniProt Q03337); test: cryo-EM structure; TRAPPIII (after anion exchange) mixed 1:3 with Ypt1-7xHis, overnight at 4°C with calf intestinal alkaline phosphatase, complex isolated by SEC in 10 mM Tris pH 7.5, 350 mM NaCl, 1 mM DTT; 3.7 Å reconstruction; both purified
[9] = target: T4, Trs20 (Saccharomyces cerevisiae); test: as above

B1: TRAPP core (complex, UniProt P38334 1-175; Q03337 1-283; P36149 1-193; Q03784 1-219; Q03630 1-159; Q99394 …)
chain 1: T4 sequence
chain 2: MSQRIIQPSASDQQFPGKSDGYEYTVGPKQAITSEASTTYIPSRIYSESLLFKRQEASLSAMAFLFQEMISQLHRTCKTAGDFETKLSDYGHNIGIRLLELLNFRASVSPSSLPRASAFLSQNESSSKLSNASNSPGMLANSSTATSASANERLQEKQTESLSNYITKMRRRDLKILDILQFIHGTLWSYLFNHVSDDLVKSSERDNEYMIVDNFPTLTQFIPGENVSCEYFVCGIIKGFLFNAGFPCGVTAHRMPQGGHSQRTVYLIQFDRQVLDREGLRFG
chain 3: MVSTTQSRSLKAMGEEIWKNKTEKINTELFTLTYGSIVAQLCQDYERDFNKVNDHLYSMGYNIGCRLIEDFLARTALPRCENLVKTSEVLSKCAFKIFLNITPNITNWSHNKDTFSLILDENPLADFVELPMDAMKSLWYSNILCGVLKGSLEMVQLDCDVWFVSDILRGDSQTEIKVKLNRILKDEIPIGED
chain 4: MAIETILVINKSGGLIYQRNFTNDEQKLNSNEYLILASTLHGVFAIASQLTPKALQLTQQTNIENTIPYIPYVGMSSNRSDTRNGGGNNNKHTNNEKLGSFKGDDFFKEPFTNWNKSGLRQLCTDQFTMFIYQTLTGLKFVAISSSVMPQRQPTIATTDKPDRPKSTSNLAIQIADNFLRKVYCLYSDYVMKDPSYSMEMPIRSNLFDEKVKKMVENLQ
chain 5: MGIYSFWIFDRHCNCIFDREWTLASNSASGTINSKQNEEDAKLLYGMIFSLRSITQKLSKGSVKNDIRSISTGKYRVHTYCTASGLWFVLLSDFKQQSYTQVLQYIYSHIYVKYVSNNLLSPYDFAENENEMRGQGTRKITNRNFISVLESFLAPMVNQ
chain 6: MSSTHSNNVGHPQSSPQGPLTEQQRAQQQYQIFENSLPKVSQSVYQMLLNEMVPLAMGIERQISGDVISSDSNVTSENGNINNMIKRLKIEEHHTVDIIRSHNLIHELYKADEEEKEKVLARLRNIGFQIGLKLSELLIFSNNPNLKFKEMDLLLIMKFICRDVWKQIFGKQIDNLKTNHRGTFYLLDYDYRPIQSFSLEEDAKNEELKMIEPFLEIPVGIIRGVLSSLGYSSEEVICLASFIDRPTDRPKTAFPKGVSFHVQVTMPQ
modifications: covalently bound palmitate (residue not stated)
binding [1]: binds | binding [2]: binds | binding [3]: binds weakly | binding [4]: binds | binding [5]: binds

B2: Trs85 (protein, UniProt P46944 1-698)
chain: T2 sequence
binding [6]: binds | binding [7]: binds | binding [8]: binds | binding [9]: binds
